Experimental data taken from the antibiotic and cytotoxicity screens of Wong et al. (2023).
The other results are listed elsewhere or left out.

What was measured:
[1] = tested on: HSkMC (human skeletal muscle cells); experiment: cytotoxicity call (relative viability < 0.9); conditions: 10 µM
[2] = tested on: HepG2; experiment: cytotoxicity call (relative viability < 0.9); conditions: 10 µM
[3] = tested on: S. aureus RN4220; experiment: growth inhibition call (relative growth <= 0.2); conditions: 50 µM

SMILES	cytotoxicity call [1]	cytotoxicity call [2]	growth inhibition call [3]
CO[C@@H]1CN(C)C(=O)c2ccc(NS(C)(=O)=O)cc2OC[C@H](C)N(C(=O)C2CCOCC2)C[C@@H]1C	inactive	inactive	inactive
C=CC[C@@H](CC(=O)N[C@H](CO)Cc1ccccc1)C(=O)N[C@@H](C)COC(=O)[C@H](CC=C)CC(=O)OC(C)(C)C	inactive	inactive	inactive
C[C@H]1CN([C@@H](C)CO)C(=O)Cc2cc(NC(=O)Nc3ccc(F)cc3)ccc2O[C@H]1CN(C)CC1CCCCC1	active	active	inactive
CC(C)NC(=O)N(C)C[C@@H]1Oc2ccc(NS(=O)(=O)c3ccc(Cl)cc3)cc2C(=O)N([C@@H](C)CO)C[C@H]1C	inactive	inactive	inactive
O=C(NCc1nc2ccccc2[nH]1)C1=C[C@H](c2csc3ccccc23)C[C@H](OCc2ccc(CO)cc2)O1	inactive	inactive	inactive
CC(C)NC(=O)Nc1ccc2c(c1)C(=O)N([C@@H](C)CO)C[C@@H](C)[C@H](CN(C)CC1CCCCC1)OCCCC[C@@H](C)O2	inactive	inactive	inactive
NCCCCCCNC(=O)[C@@H]1C[C@@H]2C(=O)N3CCC[C@H]3C(=O)N2[C@@H]1c1cccc(OCCO)c1	inactive	inactive	inactive
COc1ccc(S(=O)(=O)Nc2cccc3c2O[C@H](CN(C)S(=O)(=O)c2ccc(F)cc2)[C@@H](C)CN([C@H](C)CO)C3=O)cc1	inactive	inactive	inactive
O=C1CCC(N2C(=O)c3ccccc3C2=O)C(=O)N1 (stereo not given)	inactive	inactive	inactive
CN1C(=O)c2cc(NC(=O)Cc3cccs3)ccc2OC[C@H]2O[C@@H](CC(=O)NCCCN3CCOCC3)CC[C@H]21	inactive	inactive	inactive
CC(C)NC(=O)Nc1ccc2c(c1)C(=O)N([C@H](C)CO)C[C@@H](C)[C@H](CN(C)S(C)(=O)=O)OCCCC[C@@H](C)O2	inactive	inactive	inactive
C[C@@H]1CCCCO[C@H](CN(C)C(=O)Cc2ccccc2)[C@@H](C)CN([C@@H](C)CO)C(=O)c2cc(NC(=O)Nc3ccc4c(c3)OCO4)ccc2O1	inactive	inactive	inactive
C[N+](C)(C)CCCCCCNC(=O)[C@H]1C[C@H]2C(=O)N[C@@H](Cc3ccccc3)C(=O)N2[C@H]1c1ccc(O)cc1	inactive	inactive	inactive
C[C@@H]1CCCCO[C@H](CN(C)C(=O)Nc2ccc(F)cc2)[C@H](C)CN([C@H](C)CO)C(=O)c2cc(NC(=O)c3ccccc3)ccc2O1	inactive	inactive	inactive
C[C@H]1CN([C@@H](C)CO)C(=O)Cc2cc(NC(=O)CCCN(C)C)ccc2O[C@H]1CN(C)S(=O)(=O)c1ccccc1	inactive	inactive	inactive
C[C@@H]1CN([C@H](C)CO)C(=O)CCCn2cc(nn2)CO[C@H]1CN(C)S(C)(=O)=O	inactive	inactive	inactive
C[C@@H]1CN([C@H](C)CO)C(=O)c2cccc(NC(=O)Nc3ccc(C(F)(F)F)cc3)c2O[C@@H]1CN(C)Cc1ccc(C(=O)Nc2ccccc2N)cc1	inactive	inactive	inactive
C[C@H]1CCCCO[C@H](CN(C)S(=O)(=O)c2ccc(Cl)cc2)[C@@H](C)CN([C@@H](C)CO)C(=O)c2cc(NS(=O)(=O)c3ccc(Cl)cc3)ccc2O1	inactive	inactive	inactive
O=C(C[C@@H]1CC[C@H]2[C@@H](COC[C@H](O)CN2Cc2cc(F)ccc2F)O1)N[C@@H]1CCN(Cc2ccccc2)C1	inactive	inactive	inactive
CC1=C(/C=C/C(C)=C/C=C/C(C)=C/C(=O)O)C(C)(C)CCC1	inactive	inactive	inactive
CS(=O)(=O)N1CCN(c2ccccc2)CC1	inactive	inactive	inactive
CCC(=O)OCN1C(=O)C=CC1=O	inactive	inactive	inactive
C[C@@H]1CN([C@@H](C)CO)C(=O)c2cc(NS(=O)(=O)c3ccc(F)cc3)ccc2O[C@@H](C)CCCCO[C@@H]1CN(C)S(=O)(=O)c1cn(C)cn1	inactive	inactive	inactive
COc1ccc(S(=O)(=O)Nc2ccc3c(c2)C(=O)N([C@@H](C)CO)C[C@@H](C)[C@H](CN(C)Cc2ccc(C(=O)O)cc2)OCCCC[C@H](C)O3)cc1	inactive	inactive	inactive
COc1cccc2c1C(=O)c1c(O)c3c(c(O)c1C2=O)CC(O)(C(C)=O)CC3OC1CC(N)C(O)C(C)O1.Cl (stereo not given)	inactive	active	inactive
C[C@@H]1CN([C@@H](C)CO)C(=O)c2cc(NS(C)(=O)=O)ccc2O[C@H]1CN(C)S(=O)(=O)c1ccccc1	inactive	inactive	inactive
C[C@@H]1CN([C@@H](C)CO)C(=O)c2cccc(NC(=O)NC3CCCCC3)c2O[C@H]1CN(C)Cc1ccc(C(F)(F)F)cc1	inactive	inactive	inactive
CCCCCCCCCCC[C@@H](N=O)c1cc(C)ccc1O	inactive	inactive	inactive

SMILES	cytotoxicity call [1]	cytotoxicity call [2]	growth inhibition call [3]
C[C@@H]1COCS(=O)(=O)N1	inactive	inactive	inactive
C[C@@H]1CN([C@@H](C)CO)C(=O)CCCn2nncc2CO[C@@H]1CN(C)C(=O)Nc1ccccc1C(F)(F)F	inactive	inactive	inactive
CC(C)NC(=O)N(C)C[C@H]1Oc2cc(C#Cc3ccc(F)cc3)ccc2S(=O)(=O)N([C@H](C)CO)C[C@@H]1C	inactive	inactive	inactive
COc1ccc(NC(=O)N(C)C[C@H]2OCCCC[C@@H](C)Oc3ccc(NC(=O)Nc4ccccc4)cc3C(=O)N([C@H](C)CO)C[C@H]2C)cc1	inactive	inactive	inactive
CO[C@H]1CN(C)C(=O)c2cc(NS(=O)(=O)CC(F)(F)F)ccc2OC[C@@H](C)N(C(=O)c2ccc3c(c2)OCO3)C[C@H]1C	inactive	inactive	inactive
COCCCNC(=O)[C@@]1(CCS(=O)(=O)c2ccccc2)COC(c2ccc(OCCCO)cc2)=N1	inactive	inactive	inactive
C[C@H](CO)N1C[C@H](C)[C@H](CN(C)S(=O)(=O)c2cn(C)cn2)Oc2c(NS(=O)(=O)c3ccc(F)cc3)cccc2C1=O	inactive	inactive	inactive
COc1ccc(S(=O)(=O)Nc2cccc3c2O[C@@H](CN(C)C(=O)NC(C)C)[C@H](C)CN([C@H](C)CO)C3=O)cc1	inactive	inactive	inactive
Cc1ccc(S(=O)(=O)N(C)C[C@H]2OCCCC[C@@H](C)Oc3ccc(NC(=O)Nc4ccccc4)cc3C(=O)N([C@H](C)CO)C[C@@H]2C)cc1	inactive	inactive	inactive
CC(C)NC(=O)Nc1ccc2c(c1)C(=O)N([C@@H](C)CO)C[C@H](C)[C@@H](CN(C)S(C)(=O)=O)OCCCC[C@H](C)O2	inactive	inactive	inactive
Cc1noc(C)c1S(=O)(=O)Nc1ccc2c(c1)CC(=O)N([C@@H](C)CO)C[C@@H](C)[C@@H](CN(C)C(=O)Nc1ccc3c(c1)OCO3)O2	inactive	inactive	inactive
C[C@@H]1CN([C@H](C)CO)S(=O)(=O)c2ccc(C#CC3CC3)cc2O[C@@H]1CN(C)C(=O)C1CCCCC1	inactive	inactive	inactive
Cn1cnc(S(=O)(=O)N[C@H]2CC[C@@H](CC(=O)N3CCN(c4ccccc4)CC3)O[C@H]2CO)c1	inactive	inactive	inactive
C[C@H](CO)N1C[C@H](C)[C@H](CN(C)C(=O)Nc2cccc3ccccc23)OCCCC[C@H](C)Oc2ccc(NC(=O)Cc3ccccc3)cc2C1=O	inactive	inactive	inactive
CC1(C)OC(=O)C2(C(=O)O1)[C@@H](c1ccc(-c3ccc(C(F)(F)F)cc3)cc1)CC(=O)C[C@H]2c1ccccc1	inactive	inactive	inactive
C[C@@H]1CN([C@H](C)CO)C(=O)c2cccc(NC(=O)C3CCOCC3)c2O[C@H]1CN(C)Cc1ccc2c(c1)OCO2	inactive	inactive	inactive
CC1CC(OC(=O)C(O)c2ccccc2)CC(C)(C)C1 (stereo not given)	inactive	inactive	inactive
COc1ccc(S(=O)(=O)Nc2ccc3c(c2)C(=O)N([C@@H](C)CO)C[C@H](C)[C@H](CN(C)Cc2ccc(Oc4ccccc4)cc2)O3)cc1	inactive	inactive	inactive
COc1cccc(NC(=O)N(C)C[C@@H]2OCc3ccccc3-c3c(n(C)c4ccccc34)C(=O)N([C@@H](C)CO)C[C@H]2C)c1	inactive	inactive	inactive
COc1cccc([C@@H](N)c2ccccc2)c1	inactive	inactive	inactive
C[C@@H]1CN([C@@H](C)CO)C(=O)c2cccc(NS(=O)(=O)c3cn(C)cn3)c2O[C@@H]1CN(C)Cc1ccc2c(c1)OCO2	inactive	inactive	inactive
C[C@@H]1CN([C@@H](C)CO)C(=O)c2cc(NC(=O)C3CCCCC3)ccc2O[C@@H](C)CCCCO[C@@H]1CN(C)S(=O)(=O)c1ccc(F)cc1	inactive	inactive	inactive
Cc1ccc(S(=O)(=O)N2C[C@H](O)COC[C@@H]3O[C@H](CC(=O)N[C@H]4CCN(Cc5ccccc5)C4)CC[C@H]32)cc1	inactive	inactive	inactive
CN(C)CCCNC(=O)C[C@@H]1CC[C@@H]2[C@H](COC[C@@H](O)CN2S(=O)(=O)c2ccc(Cl)cc2)O1	inactive	inactive	inactive
C[C@@H]1CN([C@@H](C)CO)C(=O)c2cc(C#Cc3ccc(F)cc3)cnc2O[C@@H]1CN(C)CC1CCOCC1	inactive	inactive	inactive
C[C@H](CO)N1C[C@H](C)[C@H](CN(C)CC2CC2)Oc2ccc(NC(=O)Cn3cnnn3)cc2CC1=O	inactive	inactive	inactive
Cc1noc(C)c1S(=O)(=O)Nc1ccc2c(c1)C(=O)N([C@@H](C)CO)C[C@H](C)[C@H](CN(C)C(=O)Nc1ccc3c(c1)OCO3)O2	inactive	inactive	inactive
